Data published in ChEMBL document CHEMBL4888484, “Replenishing the malaria drug discovery pipeline: Screening and hit evaluation of the MMV Hit Generation Library 1 (HGL1) against asexual blood stage Plasmodium falciparum ,using a nano luciferase reporter read-out” (2022).
About 540 (0.36%) of roughly 150,000 compounds showed an effect of 50% or more. This is one part of the list.

Each molecule was assayed on Plasmodium falciparum (assay: Primary screen in NF54 nanoGlo assay, in single point, at 2uM, 72h; a lower Z score goes with more inhibition). Conditions: timepoint 72 hour.
Type: functional, Erythrocyte
`CCc1nnc(CNC(=O)Nc2cc3c(cc2OC)OCO3)s1` was tested, and the “% Inhibition” value was -7% and the Z score was 1.11. `CC(C)C(C(=O)N(C)CC1CCCO1)N1CCCC1` (stereo not drawn) was tested, and the “% Inhibition” value was -13% and the Z score was 1.76. `Cc1ccc(NC(=O)N2CC3(CC[C@H](CN4CCCC4)O3)C2)cc1C` was tested, and the “% Inhibition” value was 7% and the Z score was -1.08. For `CS(=O)(=O)C[C@H]1CCCN(c2nc(C3CCCCC3)ns2)C1`, the “% Inhibition” value was -7% and the Z score was 0.93. For `Cc1ccsc1C(Cc1ccccc1)NC(=O)N1CCC(C)(O)C1` (stereo not drawn), the “% Inhibition” value was -9% and the Z score was 1.67. For `O=C(NCC1CC1)c1nn(-c2ccccc2)c(=O)c2ccccc12`, the “% Inhibition” value was -12% and the Z score was 1.69. For `CCCCc1ccc(C(=O)Nc2c(C)cnn2[C@@H](C)C2CC2)nc1`, the “% Inhibition” value was -14% and the Z score was 2. With `CCc1c(C)nc(C)nc1N1CCC2(CC1)CC(=O)N(CC=C(C)C)C2` the “% Inhibition” value was -11% and the Z score was 1.04. With `O=C(N1C[C@H]2CC[C@H]1C2)C1(Oc2ccc3ncccc3c2)CCNCC1` the “% Inhibition” value was -18% and the Z score was 2.58. `CCN(CC)C(=O)NCc1nc2ccc(Br)cc2o1` was tested, and the “% Inhibition” value was 3% and the Z score was -0.35. In the case of `NC(=O)Nc1ccc(Cl)c(Cl)c1`, the “% Inhibition” value is reported as -10% and the Z score is reported as 1.1. With `Cc1ccncc1CC(=O)Nc1ccccc1C(=O)N1CCC(C(N)=O)CC1` the “% Inhibition” value was 0% and the Z score was 0.05. With `CO[C@@H](CNC(=O)N1CC(C)(C)OC(C)(C)C1)c1ccc(F)cc1` the “% Inhibition” value was -1% and the Z score was 0.12. For `CCS(=O)(=O)CC(C)NC(=O)N1CC(C)CCCC1C` (stereo not drawn), the “% Inhibition” value was 27% and the Z score was -3.06. With `CCC(=O)c1cc(Cl)ccc1OS(=O)(=O)c1ccc2c(c1)CCC(=O)N2` the “% Inhibition” value was -16% and the Z score was 2.29. For `COC[C@@H](O)CN1CC(Oc2ccc(C#N)cc2)C1`, the “% Inhibition” value was -28% and the Z score was 3.27. For `COc1cc(C(=O)NCC(=O)Nc2cccc(N3CCCC3=O)c2)ccc1OC(F)F`, the “% Inhibition” value was -5% and the Z score was 1.02. `CN(CCc1ccccn1)c1cc(C2CC(N)C2)nc(C2CC2)n1` (stereo not drawn) was tested, and the “% Inhibition” value was 13% and the Z score was -1.71. `O=C(O)c1ccc(CN2CC[C@H](O)[C@@H](C3CCCC3)C2)c(Br)c1` was tested, and the “% Inhibition” value was 1% and the Z score was -0.11. For `Cc1ncc(N2CC(C)(C)[C@@](C)(O)C2)nc1C`, the “% Inhibition” value was -1% and the Z score was 0.15. For `Brc1cccc2c1CN(Cc1noc(C3CC3)n1)CC2`, the “% Inhibition” value was -1% and the Z score was 0.14. `CCn1ccc(C(=O)N(CC2CCC2)C[C@H]2CCCO2)cc1=O` was tested, and the “% Inhibition” value was -2% and the Z score was 0.37. With `CCN(C(=O)Nc1cc(NC(=O)COC)ccc1C)[C@H]1CCOC(C)(C)C1` the “% Inhibition” value was -2% and the Z score was 0.3. With `c1ccc2[nH]c(C3CCC(Cn4cc(-c5cncnc5)nn4)CC3)nc2c1` (stereo not drawn) the “% Inhibition” value was -8% and the Z score was 1.05. `O=C(O)c1ccnc(C(=O)N2CCC[C@H]2c2cccs2)c1` was tested, and the “% Inhibition” value was 7% and the Z score was -0.69. For `O=C(CN1CCOCC1)N1CCN(Cc2cnns2)CC1`, the “% Inhibition” value was -13% and the Z score was 1.8. With `Cc1cc(C(=O)N[C@H]2C[C@H](O)C2)ns1` the “% Inhibition” value was -16% and the Z score was 2.18. `Cc1nc(C)c(C(=O)NC[C@@]23CCCC=C2N(Cc2ccccc2)C(=O)CC3)s1` was tested, and the “% Inhibition” value was -11% and the Z score was 1.63. In the case of `C[C@@H](O)CNCC1=Cc2cc(Cl)cc(Cl)c2OC1`, the “% Inhibition” value is reported as -15% and the Z score is reported as 2.2. With `O=C(NC[C@@]12CCC=C1N(CC1CC1)C(=O)CC2)c1ccccn1` the “% Inhibition” value was -12% and the Z score was 1.71. With `CCOC(=O)N1CCC(Nc2nc(N(C)C)nc(C)c2C)CC1` the “% Inhibition” value was -9% and the Z score was 1.69. With `C=CCNC(=O)NC(=O)[C@H](C)Nc1cnn(C(C)(C)C)c1` the “% Inhibition” value was -12% and the Z score was 2.1. In the case of `O=C(c1ccc(Cl)cc1NS(=O)(=O)c1ccoc1)N1CCCCC1`, the “% Inhibition” value is reported as 5% and the Z score is reported as -0.68. With `CC(C)(C)c1ccncc1CNC(=O)c1ncoc1C1CC1` the “% Inhibition” value was -2% and the Z score was 0.31. For `CN1C(=O)[C@@H]2CCCCN2c2ccc(C(=O)NCCN3CCN(c4ccccc4F)CC3)cc21`, the “% Inhibition” value was 34% and the Z score was -0.64. For `CCc1ccc(C(=O)N2CCCN(c3nc(Cc4ccc(C)cc4)nc4c3c(C)nn4-c3ccc(F)cc3)CC2)cc1`, the “% Inhibition” value was 1% and the Z score was -0.16. With `CC[C@H](C)C(=O)Nc1ccc(N2CCNC(=O)C2)nc1` the “% Inhibition” value was -6% and the Z score was 0.68. For `CCc1ccc(NCc2cnc([C@@H]3CCCO3)s2)cc1S(N)(=O)=O`, the “% Inhibition” value was -10% and the Z score was 1.59. For `CCc1cc(NC(=O)[C@@H]2CCN(c3cc(F)cc(F)c3)C2=O)n(C)n1`, the “% Inhibition” value was -1% and the Z score was 0.13. With `CN(C)CCCCOc1cccc(Cl)c1` the “% Inhibition” value was -13% and the Z score was 1.77. `O=C(O)CCC1CCCN(C(=O)C2CCN(c3cc(F)cc(F)c3)C2=O)C1` (stereo not drawn) was tested, and the “% Inhibition” value was -12% and the Z score was 1.69. `COc1cc(F)c(F)cc1NC(=O)CO` was tested, and the “% Inhibition” value was -1% and the Z score was 0.11. In the case of `CCC(C)C(Nc1ncccn1)C(N)=O` (stereo not drawn), the “% Inhibition” value is reported as -8% and the Z score is reported as 0.99. `Cc1cc(C)c2[nH]c(C(=O)N(C)C[C@H]3CCCCO3)c(C)c2c1` was tested, and the “% Inhibition” value was -11% and the Z score was 1.83. In the case of `CC(C)(C)CC(=O)NCCc1cccs1`, the “% Inhibition” value is reported as -3% and the Z score is reported as 0.42. With `COc1ccccc1-c1n[nH]cc1CN1C[C@@H]2CCN(S(C)(=O)=O)C[C@]2(CF)C1` the “% Inhibition” value was -9% and the Z score was 1.78. For `Cc1c[nH]c(CN2CC(C)(C)[C@@](C)(O)C2)c(C)c1=O`, the “% Inhibition” value was -17% and the Z score was 2.89. With `CCN(C(=O)Cn1c(=O)n(Cc2ccccc2F)c(=O)c2sccc21)c1cccc(C)c1` the “% Inhibition” value was -5% and the Z score was 0.64. For `Cc1cc(C)n(CCNS(=O)(=O)c2ccc(N3CCCCS3(=O)=O)cc2)n1`, the “% Inhibition” value was -3% and the Z score was 0.4. `CCc1cccc(NC(=O)N2CCN(CCOC)[C@@H]3CS(=O)(=O)C[C@@H]32)c1` was tested, and the “% Inhibition” value was -14% and the Z score was 1.41. In the case of `CCn1cc(C(=O)N2CCC[C@@]3(CCC(=O)N(Cc4cccnc4)C3)C2)cn1`, the “% Inhibition” value is reported as -12% and the Z score is reported as 1.31. In the case of `O=C(C[C@H]1Cn2ncc(-c3ccccc3)c2NC1=O)NCc1ccco1`, the “% Inhibition” value is reported as -13% and the Z score is reported as 1.18. `Cn1ccnc1CN1CC[C@@]2(CCCN(Cc3ccccc3F)C2=O)C1` was tested, and the “% Inhibition” value was 6% and the Z score was -0.72. For `CCN(CC)C(=O)c1cc(N)c(OC)c(OC)c1`, the “% Inhibition” value was -8% and the Z score was 1.27. For `CCCOCCN1C[C@@H]2CC[C@H]1CN(C(=O)c1ccccc1)C2`, the “% Inhibition” value was 1% and the Z score was -0.13. For `CCOc1ccccc1NC(=O)[C@H](C)N1CC(OCCCOc2ccccc2)C1`, the “% Inhibition” value was 8% and the Z score was -1.33. For `CC(C)c1nccc(C(=O)N2CCc3n[nH]cc3C2)n1`, the “% Inhibition” value was 3% and the Z score was -0.53. `O=C(CCn1cccn1)N1CCc2[nH]ncc2C1` was tested, and the “% Inhibition” value was -5% and the Z score was 0.94. With `C[C@@H](Cn1cc(Cl)cn1)/C(N)=N\O` the “% Inhibition” value was -44% and the Z score was 5.14. `Cc1nnc(CN(CC(=O)N2CCc3ccccc3C2)C(C)(C)C)o1` was tested, and the “% Inhibition” value was 9% and the Z score was -1.16. `COc1nccnc1N1CCC2(CC1)CC(=O)N(Cc1ccc(F)c(F)c1)C2` was tested, and the “% Inhibition” value was -18% and the Z score was 3.62. In the case of `O=C(NCCn1cnc2cc(C(=O)N3CCCC3)ccc21)Nc1ccc(Br)cc1`, the “% Inhibition” value is reported as -12% and the Z score is reported as 1.53. `C=C(C)CNC(=O)N[C@@H](COC)c1ccc(F)c(F)c1` was tested, and the “% Inhibition” value was 6% and the Z score was -0.77. `Cc1ncoc1C(=O)N1CC[C@@]2(CCCN(CC3CCCCC3)C2=O)C1` was tested, and the “% Inhibition” value was -4% and the Z score was 0.85. In the case of `CCN(Cc1cc2cc(OC)ccc2nc1O)[C@H]1CCS(=O)(=O)C1`, the “% Inhibition” value is reported as -8% and the Z score is reported as 1.13. With `CC(NC(C)c1ccco1)c1cnn(C(C)C)c1` (stereo not drawn) the “% Inhibition” value was -3% and the Z score was 0.32. For `COc1cccc(OC)c1C(=O)NCc1c2c(c(O)c3c1OCO3)C(=O)N(C)CC2`, the “% Inhibition” value was -13% and the Z score was 1.76. For `C[C@@H](c1ccccc1)n1c(NC(=O)c2cccc(Br)c2)c(S(=O)(=O)c2ccccc2)c2nc3ccccc3nc21`, the “% Inhibition” value was 1% and the Z score was -0.19. With `CCOC(=O)CN(C)C(=O)c1ccc(NC)cc1Cl` the “% Inhibition” value was -15% and the Z score was 2.61. With `N[C@H]1CCCN(C(=O)Nc2ccccc2Oc2ccccc2)CC1` the “% Inhibition” value was 8% and the Z score was -1.07. With `CNC(=O)Cc1nc(Cc2ccccc2Br)cs1` the “% Inhibition” value was -18% and the Z score was 2.85. `O=C(Nc1nc(-c2ccc3c(c2)OCCO3)cs1)c1cccc(S(=O)(=O)N2CCCc3ccccc32)c1` was tested, and the “% Inhibition” value was 6% and the Z score was -0.81. With `Cc1ccc(Oc2nc(N3CCN(C)CC3)nc3c2CN(S(=O)(=O)c2cccc(C)c2)CC3)cc1` the “% Inhibition” value was -7% and the Z score was 0.77. `Cc1ccc2[nH]cc(-c3nc4c([nH]3)CCN[C@H]4C(=O)O)c2c1` was tested, and the “% Inhibition” value was -4% and the Z score was 0.5. With `O=C(NCCS(=O)(=O)N1CCCC1)c1ccc2cccc(F)c2n1` the “% Inhibition” value was 0% and the Z score was -0.04. With `Nc1nc2c(s1)C[C@@H](NC(=O)C[C@@H]1CCCC[C@H]1O)CC2` the “% Inhibition” value was 1% and the Z score was -0.13. In the case of `CC(C)C(=O)N1CCC(c2nc(Cc3cc(F)cc(F)c3)no2)CC1`, the “% Inhibition” value is reported as -8% and the Z score is reported as 0.96. `O=C(NC1CC1C1CCCCC1)N1CCS(=O)(=O)CC1` (stereo not drawn) was tested, and the “% Inhibition” value was 77% and the Z score was -9.17. With `Cc1cc(C(=O)NC[C@H]2CCN(Cc3nc4ccccc4[nH]3)C2)[nH]n1` the “% Inhibition” value was -4% and the Z score was 0.63. `O=C(c1ccc(Cl)cc1Cl)N(Cc1ccsc1)Cc1ccccn1` was tested, and the “% Inhibition” value was 18% and the Z score was -2.66. With `CCCN(CC1CC1)C(=O)Nc1ccc2c(c1)OCO2` the “% Inhibition” value was 6% and the Z score was -1.16. In the case of `CC(Cc1ccc2ccccc2c1)NC(=O)NC1CCN(C)C1=O` (stereo not drawn), the “% Inhibition” value is reported as -6% and the Z score is reported as 0.93. In the case of `CCc1nc(C)c(CN2CCC[C@H](N(C)CCc3ccc(OC)c(OC)c3)C2)[nH]1`, the “% Inhibition” value is reported as -18% and the Z score is reported as 1.9. With `CC1CN(C(=O)CN(C)c2cnccn2)CC(C)O1` (stereo not drawn) the “% Inhibition” value was -5% and the Z score was 0.83.
